Results reported in the supplement of paper PMC10126150.
Values marked as one replicate rest on one cluster of the flow cell; about a third of the high ones do not repeat.

System: ATP
Assay: switch fluorescence ratio, 500 uM ATP over buffer (Cy3 cluster intensity, sum of 5 cycles each) (fold (ratio)); higher = stronger signal-on switching upon ATP binding; sequences stand for … in TCGTCGGCAGCGTCAGATGTGTATAAGAGACAGTTTTTTTTTTTTTTTTTTTTTTTTT…TC
Conditions: aptamer strand: ATP DNA aptamer (quencher-CACCTGGGGGAGTATTGCGGAGGAAGG + anchor), 100 nM annealed; ATP concentration: 500 uM; one replicate
Summary of the method: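 The quencher-labelled ATP aptamer, at 100 nM, was annealed to Cy3-labelled switching-strand clusters on a modified Illumina MiSeq flow-cell. The clusters were imaged in selection buffer, then after 15 min with 500 uM ATP at 22 °C, and this buffer/ATP cycle ran five times with NaOH stripping and re-annealing between runs. Per-cluster fluorescence ratios, summed target-cycle over summed buffer-cycle Cy3 intensity, were averaged per switch-domain sequence. Clusters outside 100-1000 RFU were excluded.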
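Further: ATP exposure 15 min at 22 °C before imaging.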

Row | Sequence | switch fluorescence ratio
1 | ACACATCCAG | 1.06
2 | CGGGTGGACT | 1
3 | ACCCTGTTAT | 1.02
4 | ACGGGAAACT | 1.07
5 | CGACCAATG | 1.08
6 | AGAGTTTAGT | 1.01
7 | CCGTTGTCGG | 0.932
8 | CAGTCCCCCC | 1.51
9 | AGCTGAAGT | 0.975
10 | CTACGTCGGT | 1.14
11 | AGCAGCGTGT | 0.996
12 | TGCATATGGT | 1.03
13 | CAGTACACCT | 1.23
14 | GCGTACTATT | 1.02
15 | TTGTGTTT | 1.03
16 | TGAGCTGAGT | 1.01
17 | ATAGTTTCTT | 0.974
18 | ACCGTTTTAA | 1.02
19 | AGTCAACTTT | 1.05
20 | GCGGGAGTGT | 1
21 | AAGCTCCAGC | 1.02
22 | CGCGAATTAT | 0.998
23 | CGATAATTAG | 1.02
24 | CGGCAGAGTG | 1.01
25 | GAGCGTATTC | 1.11
26 | CTGATCAAGA | 0.967

Row | Sequence | switch fluorescence ratio
27 | ATGCATACAG | 1.03
28 | GAGGTAACGG | 0.983
29 | GATCCCGTTT | 0.974
30 | ACGCTAAGGG | 1.08
31 | ATAGCCTAAA | 0.969
32 | GGTCGCTTGA | 0.962
33 | ACCCGTTTAT | 1
34 | CATTCCCTAT | 0.991
35 | GAATGATAGG | 0.988
36 | TCGTCATATT | 1.03
37 | TTATCTAGGT | 1.04
38 | CGCTCAACGC | 1.04
39 | CACTCAGCAA | 3.26
40 | CAAAGTTCCA | 0.967
41 | TACAACAAAC | 1.06
42 | CCAGGGACCA | 0.998
43 | TAACTTCTGT | 0.97
44 | CAAGTGGCTA | 1
45 | TTTACGTGAT | 1.07
46 | TGGAAGTGCG | 0.98
47 | TTATTCGCTT | 1.04
48 | GGAAGCCAGC | 0.964
49 | TGACGTTGCT | 0.964
50 | AGATGTGAAG | 1.01
51 | TGTAGTAAGG | 1.04
52 | GGCAGTGCCT | 0.977

Row | Sequence | switch fluorescence ratio
53 | ACAAGCTATC | 1.47
54 | ATTTGGAAAA | 1.1
55 | TCGACGGGCT | 1.11
56 | CGCACGTAGC | 1.14
57 | ACGGGGCGAA | 1.03
58 | ACGTAGGATG | 0.931
59 | GGCATGAAGT | 0.989
60 | CGCGAGGCAG | 1.04
61 | TAATTACAT | 1
62 | GGAGATAAT | 1
63 | CCGGCCAATT | 2.71
64 | AGAGGGTCAC | 0.993
65 | TTCACAGGGC | 1.06
66 | TACATCCTTC | 1.11
67 | ATGAACTTTA | 1.02
68 | GCACCGGTAG | 1.06
69 | CCCAACGGGA | 1.02
70 | GGCAGATATA | 1.02
71 | GTGTAACTTG | 1.02
72 | GCATTTAGCG | 0.992
73 | TGAATTGACG | 0.99
74 | ATAATATTGC | 0.986
75 | GGTTGCCGAA | 1.07
76 | AATAGGGGAT | 0.967
77 | CTTAGGACAA | 1.01
78 | TCTATAGTGT | 0.968

Row | Sequence | switch fluorescence ratio
79 | TATTTGCCGC | 1.01
80 | AGGTGGCGGT | 1.01
81 | TTATTTCTAG | 0.996
82 | CATGTAGTCG | 0.99
83 | TGAACTGTGT | 0.996
84 | AGGCTGCCAG | 0.945
85 | ACTATTCT | 1.12
86 | ATAACGCAC | 2.24
87 | GCAAGCAGTG | 0.969
88 | GGTTTCAGTT | 1.02
89 | GAAGCGGGGA | 0.992
90 | TGTGAGCGC | 0.943
91 | CTCACTGAGA | 1.03
92 | TTCTTCAGAT | 1.04
93 | ATCGTTTTGC | 1.01
94 | TGATCCCCTT | 1.01
95 | TGGTCTGCGG | 0.998
96 | TTATGGCTGG | 1.01
97 | CCACTCGTTT | 1.03
98 | GACCGTAGCC | 1.54
99 | GTGCGGGCAA | 0.988
100 | CAAATGAACC | 1.08
101 | CGTGTTAATC | 1
102 | AGGCGATTCA | 1.02
103 | TAGGGTAATA | 0.999
104 | CTTGATGCTT | 0.989

Row | Sequence | switch fluorescence ratio
105 | GATTCAGATT | 0.991
106 | GTCTGTTGCT | 1.1
107 | AAGGCTAATC | 0.987
108 | GGGCACTAGG | 1.04
109 | GTTTTAGACA | 0.951
110 | CGGAACGGTC | 1.02
111 | AGTTCTAAGG | 1.01
112 | CTGACTCCGC | 3.28
113 | CCGCTCCA | 1.8
114 | CCGCGTCATA | 2.92
115 | ACTCTGAACG | 1.1
116 | CTTCTGAAGT | 1.16
117 | CAAGTCTGCT | 0.941
118 | GACATAAGAT | 0.987
119 | CAAAAGTATA | 1.01
120 | ACCATGTCAT | 1.01
121 | AGAATCGAGG | 0.985
122 | CTTTATTGA | 1
123 | AGATGGACAT | 1.01
124 | CTTATCCAAT | 1.04
125 | TGCAGAAACT | 0.983
126 | GACATATTCA | 1.04
127 | CTAGCAGCGG | 1.02
128 | ACCCTGGTCC | 1.07
129 | CTCCTTTGAC | 1.78
130 | ATGGAGCATC | 1.95

Row | Sequence | switch fluorescence ratio
131 | CAACGTACGT | 1.15
132 | ATTAGGTGCG | 0.946
133 | GCTGCGGAAG | 1.05
134 | TATTGGATTC | 0.99
135 | ATTTGTGACA | 0.988
136 | AGGTTTGGTC | 1.01
137 | CTAAGTTGT | 1
138 | ACGCGCATAT | 1.28
139 | TGGGCTTCGA | 1.02
140 | GTGAATAAGA | 0.991
141 | TTACTCGCA | 1.25
142 | GTTATCCGGA | 1.02
143 | CAAAGGTATC | 1.01
144 | CTACGTCTG | 1.05
145 | CCGCTTAACG | 2.23
146 | GTTACCGGTC | 1.05
147 | GTTGACATGA | 0.978
148 | CCACGTTATA | 1.36
149 | AGTCAAGGGG | 0.955
150 | CACGAGCGG | 1.03
151 | GAGGGATGAG | 0.991
152 | GTTTCATTTC | 0.989
153 | AGGTGTATAG | 1.02
154 | GAGAATCACT | 1.03
155 | TGCTAGGCCA | 0.98
156 | GCAATGTTTT | 0.998

Row | Sequence | switch fluorescence ratio
157 | TACAGGTGCG | 1.44
158 | AGGCGTGAGA | 0.972
159 | CATGTTAACT | 1.04
160 | TCCAAATAA | 0.999
161 | GAGCAATGTT | 1.5
162 | ATAACTGCCA | 1.1
163 | TTGCTGGATC | 1.03
164 | TATATTCTA | 0.985
165 | TGCATTGAGC | 1.07
166 | CTTACCCGCT | 3.52
167 | ATCCGTCTGG | 1.01
168 | GCCTTACGTA | 1.15
169 | CCGATAGTGG | 1.04
170 | CGAGTTTAGC | 0.952
171 | GAGAGGCTAG | 0.978
172 | GAGGCCGAGG | 0.968
173 | AAGATGGCTG | 0.902
174 | TGTAGTCAAA | 0.95
175 | TGGTAGGGCA | 1
176 | TTTAATCCGA | 1.07
177 | GTGTCTTCGG | 1.02
178 | ACATATGGT | 1.07
179 | CTTGGAGATG | 0.996
180 | CGACTTGTGA | 1
181 | CTCAGCCTGG | 1.11
182 | CTGAGAGAG | 0.967

Row | Sequence | switch fluorescence ratio
183 | ACAGATCCAT | 0.989
184 | ATTCTTTAGC | 0.995
185 | TGAGGTGCGC | 1.01
186 | TTAGCAGGTT | 1.06
187 | AAGTATGTGG | 0.996
188 | TTTCGTATG | 1.03
189 | TGCACAAGAG | 0.997
190 | GGCTCTCCAT | 1.02
191 | CAGGAAACCG | 1.04
192 | GTGTAACTCC | 1.01
193 | AGTGCCATCG | 1.01
194 | AGAGGCCGAG | 1
195 | AGTAACCACG | 1.03
196 | CAGTAAGGCA | 0.972
197 | TTGCGCGTCT | 1
198 | ACATTTCAGC | 1.03
199 | AGGTTAAGGG | 0.962
200 | CTTATTGCCA | 1.34
201 | ATTACTGAAA | 1
